# PubChem BioAssay AID651820 (National Center for Advancing Translational Sciences (NCATS), 2012)
# “And” between values parts separate entries of the source, which are not always exact repeats. Equal entries are not always repeated. The campaign covered roughly 340,000 compounds. About 12,000 (3.5%) were called active. The inconclusive results got no clear call from the source; some entries with a clear call stand among them for comparison. Calls follow the shape of the dose curve; as a rule, active = well fitted inhibition curve with a large enough effect; inconclusive = small, poorly fitted or top-dose-only effect, or another doubt; inactive = no such curve, though single readings can be large or run the other way. Potencies of inconclusive entries are doubtful fits and often do not repeat.
# Experiment: qHTS Assay for Inhibitors of Hepatitis C Virus (HCV)
# Conditions: Huh7.5.1 HCVcc-Cre (HCVcc is cell-culture hepatitis C virus) infection, luciferase reporter, 44 h; activity change, negative = inhibition: at 41.8 µM (top of the series)
# Method in brief: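 1,000 cells/well; 4 h culture; + compound; + HCVcc-Cre (~0.5 moi); 44 h; luciferase substrate, RT 15 min; read 15 sec.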
# % is scaled to controls: 0 for no effect and ±100 for the full control effect; potency is read from the fitted curve at half-maximal effect; tags tell the direction and shape of the fitted curve.
SMILES,"activity change, negative = inhibition",Potency
O=[N+]([O-])c1cc(C(F)(F)F)ccc1NC1CCN(Cc2ccccc2)CC1,inactive: 0.605%,–
CCC(=O)NC(=S)Nc1ccc2oc(-c3ccc(OC)cc3)nc2c1,–,"inconclusive: 5.62 µM [inhibitor, single point]"
COCC(C)NC(=O)COc1ccc(Cl)cc1Cl (stereo not given),–,"inconclusive: 5.62 µM [inhibitor, partial curve]"
CC(C)N1CCc2c(sc(NC(=O)CCS(=O)(=O)c3ccccc3)c2C(N)=O)C1,inactive: -10.7%,–
O=C(C1CCCCN1S(=O)(=O)c1ccccc1)N1CCCCC1 (stereo not given),–,"inconclusive: 5.62 µM [inhibitor, single point]"
COc1ccccc1CNC(=O)c1cnc2sccn2c1=O,–,active: 10 µM
Nc1c(C(=O)NC2CCCC2)c2nc3ccccc3nc2n1N,inactive: -11.5%,–
CC(=O)Oc1ccc(C(=O)Nc2ccc(C3(C#N)CCCC3)cc2)cc1,–,active: 14.1 µM
COc1ccc(C2CC(=O)c3cnc(NC(=O)c4ccccc4)nc3C2)c(OC)c1 (stereo not given),–,"inconclusive: 4.47 µM [inhibitor, partial curve]"
Cc1ccc(S(=O)(=O)N2CCN(CC(=O)NC3CCCc4ccccc43)CC2)cc1C (stereo not given),–,active: 31.6 µM
Oc1ccccc1-c1nc(NC2CCCC2)c2ccccc2n1,–,"inconclusive: 3.55 µM [inhibitor, partial curve, poor fit]"
CC(=O)Nc1ccc(S(=O)(=O)Nc2cccc(NC(=O)c3ccco3)c2)cc1,–,"inconclusive: 10 µM [inhibitor, single point]"
COc1ccc(-c2nc3c(c(=O)[nH]c(=O)n3Cc3ccccc3)n2Cc2ccccc2)cc1,–,active: 12.6 µM
C=CCc1cc(C)ccc1OCCOCCn1ccnc1,–,"inconclusive: 31.6 µM [inhibitor, single point]"
O=C(Nc1ccccc1)OCCCCCOC(=O)Nc1ccccc1,–,"inconclusive: 25.1 µM [inhibitor, single point]"
O=C(CC(=O)c1ccccc1)Nc1ccc(Cl)cc1,–,"inconclusive: 20 µM [inhibitor, partial curve, poor fit]"
N#Cc1cccc(NC(=O)c2nc(-c3ccccc3)n(-c3ccccc3)n2)c1,–,"inconclusive: 20 µM [inhibitor, partial curve, poor fit]"
CC1(C)CC(=O)c2cc(OCC(=O)N3CCN(c4ccccc4F)CC3)ccc2O1,–,"inconclusive: 3.16 µM [inhibitor, full curve, poor fit] and inconclusive: 35.5 µM [inhibitor, partial curve]"
Cc1cc(-c2nnco2)c(C)n1-c1ccc(F)cc1,inactive: -1.45%,–
Cc1ccc(S(=O)(=O)NCc2ccncc2)cc1,–,active: 2.82 µM
CCCN1CCN(CCCNC(=O)c2cc3c(s2)-c2c(C)cccc2OC3)CC1,–,active: 2.51 µM
COc1cccc(C2(c3cccc(OC)c3)CC2C(=O)Nc2ccc(F)cc2)c1 (stereo not given),inactive: 9.29%,–
CCOC(=O)c1c(S(=O)(=O)Nc2ccc(F)cc2C)c(C)n(C)c1C,inactive: -17.6%,–
O=[N+]([O-])c1ccc(/C=C/C2=NN(c3ccccc3)C(c3ccco3)C2)o1 (stereo not given),–,"inconclusive: 1.12 µM [inhibitor, partial curve]"

SMILES,"activity change, negative = inhibition",Potency
C=CCN1CCc2c(cc(O)c(O)c2Cl)C(c2ccccc2)C1 (stereo not given),–,"inconclusive: 11.2 µM [inhibitor, partial curve]"
C=CCc1ccc(OCCOCCOc2cccc3ccc(C)nc23)c(OC)c1,–,"inconclusive: 11.2 µM [inhibitor, partial curve]"
O=C(NNC1=NCCCCC1)Nc1cccc(Cl)c1,inactive: 10.4%,–
C#CCN(CC=C)C(=O)c1cccc(OC2CCN(S(C)(=O)=O)CC2)c1,inactive: -13.4%,–
Cc1ccc(-c2noc(CN(C(=O)c3cccs3)C(C)C)n2)cc1,–,"inconclusive: 2.51 µM [inhibitor, full curve, poor fit]"
O=C(COC(=O)Cc1ccccc1[N+](=O)[O-])NCc1ccc(F)cc1,inactive: 2.66%,–
CCN(CCCNC(=O)CCc1nc(-c2ccc(C)cc2)no1)c1cccc(C)c1,–,"inconclusive: 12.6 µM [inhibitor, partial curve]"
Cc1ccc(S(=O)(=O)N2CCC(CN3C(=O)c4cccc5cccc(c45)C3=O)CC2)cc1,–,"inconclusive: 7.94 µM [inhibitor, partial curve]"
O=C(C1=C[C@H](c2ccc(C(F)(F)F)cc2)C[C@H](OCCCCO)O1)N1CCN(Cc2ccc3c(c2)OCO3)CC1,–,"inconclusive: 12.6 µM [inhibitor, single point]"
CCOC(=O)c1cnc2c(ccc3ccccc32)c1NCCN(C)C,inactive: -25.8%,–
COCCNC(=S)N/N=C/c1c(C)[nH]c2ccccc12,–,active: 10 µM
CCN1C(=O)/C(=C\N(C(C)=O)c2ccccc2)OC1=S,–,"inconclusive: 0.794 µM [inhibitor, full curve, poor fit]"
CCOc1ccc(C(=O)Nc2ccc3c(c2)OCO3)cc1OCC,–,active: 5.62 µM
Cc1cccc(Cc2ncc(C(F)(F)F)cc2Cl)c1,inactive: 16.8%,–
COCC(=O)n1nc(-c2ccc(Cl)cc2)nc1NCc1ccc(F)cc1,–,"inconclusive: 31.6 µM [inhibitor, single point]"
CCNC(=O)O/N=C(\C)c1sc(-c2ccccc2)nc1C,–,active: 11.2 µM
CCC(C)n1c(SCC(=O)Nc2cc(C(C)(C)C)nn2-c2ccccc2)nc2ccccc2c1=O (stereo not given),–,"inconclusive: 22.4 µM [inhibitor, single point]"
COc1ccccc1C(=O)NC(CCSC)C(=O)Nc1ccc(C)c(S(=O)(=O)N2CCOCC2)c1 (stereo not given),–,"inconclusive: 12.6 µM [inhibitor, single point]"
CCOC(=O)c1[nH]ncc1CN1CCCC(C(=O)c2ccc(SC)cc2)C1 (stereo not given),inactive: 3.98%,–
N#Cc1c(Nc2ccccc2)sc(C(=O)c2ccccc2)c1N,–,"inconclusive: 2 µM [inhibitor, full curve]"
COc1ccc(F)cc1CN1CCN(CC(=O)N2CCc3ccccc32)CC1,–,"inconclusive: 15.8 µM [inhibitor, single point]"
CCCCCOc1ccc(C(=O)OC(C)C(=O)NCc2ccco2)cc1 (stereo not given),–,"inconclusive: 22.4 µM [inhibitor, single point]"
Cn1c(CN2CCCCC2)c(C#N)c2ccccc21,–,"inconclusive: 10 µM [inhibitor, partial curve]"
NS(=O)(=O)c1cc(C(=O)N2CCc3ccccc32)c(Cl)cc1Cl,–,"inconclusive: 28.2 µM [inhibitor, partial curve]"

SMILES,"activity change, negative = inhibition",Potency
CCOC(=O)c1[nH]c(C)c(C(=O)Nc2cc(Cl)ccc2C)c1C,–,active: 1.26 µM
COc1cc(NC(=O)c2ccc3c(SCC(=O)O)c4c(nc3c2)CCCC4)cc(OC)c1OC,–,"inconclusive: 2.24 µM [inhibitor, single point]"
CCOC(=O)c1sc(NC(=O)CN(CC)CC)c(C(=O)OCC)c1C,–,"inconclusive: 0.562 µM [inhibitor, full curve, poor fit]"
O=C(COc1nsnc1N1CCOCC1)Nc1ccc(Br)cc1,–,"inconclusive: 4.47 µM [inhibitor, full curve, poor fit]"
COc1cccc(OCCCN2CCN(S(=O)(=O)c3ccc(NC(C)=O)cc3)CC2)c1,–,active: 12.6 µM
CC(C)(C)c1ccc(CN2C(=O)c3ccccc3S2(=O)=O)cc1,–,"inconclusive: 12.6 µM [inhibitor, single point]"
COC(=O)c1cc(C(=O)c2cc(F)ccc2O)cn2c(=O)c3c(C)c(C)sc3nc12,–,"inconclusive: 10 µM [inhibitor, partial curve]"
CC(C)C(NC(=O)c1ccccc1)c1nnc(SCC(=O)Nc2nccs2)n1C (stereo not given),inactive: 9.76%,–
O=C1CC(c2ccc3ccccc3c2)NN1 (stereo not given),–,"inconclusive: 1.78 µM [inhibitor, partial curve]"
COc1ccc(NC(=O)CC2C(=O)N(CCc3ccccc3)C(=S)N2Cc2cccnc2)cc1 (stereo not given),–,"inconclusive: 11.2 µM [inhibitor, single point]"
O=C(Nc1ccc2c(c1)OCCO2)c1cncc(Br)c1,inactive: -7.42%,–
O=C(NCc1ccccn1)c1cc(-c2ccc(-c3ccccc3)cc2)nc2ccccc12,–,"inconclusive: 10 µM [inhibitor, partial curve]"
COc1cccc(/C(O)=C/c2nc3ccc(C(=O)NCCc4cccc(C)c4)cc3[nH]c2=O)c1,–,"inconclusive: 11.2 µM [inhibitor, partial curve]"
COc1ccc([N+](=O)[O-])cc1NC(=O)Nc1ccc(OC)c(OC)c1,–,active: 2.82 µM
Cc1nc2ccc(NC(=O)c3cc(S(=O)(=O)N(C)c4ccccc4)ccc3Cl)cc2s1,–,"inconclusive: 3.16 µM [inhibitor, full curve]"
O=C(NCc1ccccc1)c1onc(CSc2ccc(F)cc2)c1C(=O)NCCCN1CCOCC1,–,"inconclusive: 22.4 µM [inhibitor, single point]"
O=C(Nc1cccc2cccnc12)c1ccc(Cl)cc1Cl,–,"inconclusive: 25.1 µM [inhibitor, single point]"
O=C(Cn1ncc(Cl)c(Cl)c1=O)NC(=O)NC1CCCCC1,–,active: 0.631 µM
Cc1cccc(-c2csc(N)c2C(=O)OC(C)C)c1,–,"inconclusive: 10 µM [inhibitor, single point]"
Cc1ccc(Cl)cc1NC(=S)N(CCN(C)C)Cc1cccs1,–,"inconclusive: 31.6 µM [inhibitor, single point]"
CCCc1cc(=O)oc2c(C)c(OC(C)C(=O)NCC(O)c3ccccc3)ccc12 (stereo not given),–,"inconclusive: 0.891 µM [inhibitor, full curve]"
CCN(CC)S(=O)(=O)c1ccc(N2CCCC2)c(C(=O)OCC(=O)/C(C#N)=C(\C)N)c1,–,"inconclusive: 10 µM [inhibitor, partial curve]"
